The other results are listed elsewhere or left out. At the low end of the ranking, values are background and their order means little.

Among the data in publication PMC5892938 are binding signal (log2 fold change) values, retold here.

The target in this assay is GST-SBP-SLBP (stem-loop binding protein) (UniProt Q14493). Kind of assay: targeted RNA Bind-n-Seq.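 Note: DESeq read counts versus GST-SBP nonspecific binding control pulldown.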 The conditions noted are these: RBNS binding buffer: 25 mM Tris pH 7.5, 150 mM KCl, 3 mM MgCl2, 0.1% Tween, 0.5 mg/mL BSA, 1 mM DTT; 27 nM protein, 750 pM RNA pool; temperature not stated; high values mean tight binding.
Take “GGUCACGUCUCAAUCAACUCAUCCCCAGGAGUUUGCUCCUGCUAUCUCAACAGCUCGCAGUCAAG”: the binding signal (log2 fold change) was -0.0221.
The figure for “GGUCACGUCUCAAUCAACUCAACGGCAGGAGUUUUCUCCUGGAUAUUCAACAGCUCGCAGUCAAG” is 0.000663; for “GGUCACGUCUCAAUCAACUCAAUUUCAGGAGUUUCCUCCUGCUUACUCAACAGCUCGCAGUCAAG” it is -0.174.
With “GGUCACGUCUCAAUCAACUCAACUUCAGGAGUUUUCUCCUGUAUACUCAACAGCUCGCAGUCAAG”, the binding signal (log2 fold change) amounted to 0.0253.
With “GGUCACGUCUCAAUCAACUCACAAGAGGGGGGGAAAACCCCUUUGCCCUCAUCUUCAACAGCUCGCAGUCAAG”, the binding signal (log2 fold change) is -0.111.
As for “GGUCACGUCUCAAUCAACUCAAUUUCCAGGGAAAACCCUGGUAUAUUCAACAGCUCGCAGUCAAG”, the figure is -0.16; as for “GGUCACGUCUCAAUCAACUCUUCCCCCAGGGAAACCCCUGGUAUAUUCAACAGCUCGCAGUCAAG”, -0.14.
As to “GGUCACGUCUCAAUCAACUCUAUGUCAGGAGUUUCCUCCUGUUUUUUCAACAGCUCGCAGUCAAG”, the binding signal (log2 fold change) was -0.178.
Take “GGUCACGUCUCAAUCAACUCAAUCUCCAGGGAAACCCCUGGUUAUCUCAACAGCUCGCAGUCAAG”: the binding signal (log2 fold change) was -0.0801.
“GGUCACGUCUCAAUCAACUCUUUCUCCAGGGAAAACCCUGGUAAUCUCAACAGCUCGCAGUCAAG”: the binding signal (log2 fold change) was -0.196.
In the case of “GGUCACGUCUCAAUCAACUCUUUUUCCAGGGAAACCCCUGGUAUGUUCAACAGCUCGCAGUCAAG”, the binding signal (log2 fold change) was -0.00643.
In the case of “GGUCACGUCUCAAUCAACUCUCUAGAGGGGGGGAAAACCCCUUUGCCCUCACUUUCAACAGCUCGCAGUCAAG”, the binding signal (log2 fold change) was -0.55.
“GGUCACGUCUCAAUCAACUCUUCUCCCAGGGAAACCCCUGGUUAUCUCAACAGCUCGCAGUCAAG”: the binding signal (log2 fold change) is -0.149.
On to “GGUCACGUCUCAAUCAACUCCAUAGAGGGGGGGAAAACCCCUUUGCCCUCCACAUCAACAGCUCGCAGUCAAG”, for which the binding signal (log2 fold change) was -0.0358.
The figure for “GGUCACGUCUCAAUCAACUCUUUUUCCAGGGAAAACCCUGGUUAUGUCAACAGCUCGCAGUCAAG” is 0.0187.
With “GGUCACGUCUCAAUCAACUCUAUUUCAGGAGUUUACUCCUGUUAACUCAACAGCUCGCAGUCAAG”, the binding signal (log2 fold change) is -0.12.
In the case of “GGUCACGUCUCAAUCAACUCAUCCUCCAGGGAAAGCCCUGGCAAACUCAACAGCUCGCAGUCAAG”, the binding signal (log2 fold change) was -0.259.
On to “GGUCACGUCUCAAUCAACUCUUCCUCAGGAGUUUACUCCUGCAUUCUCAACAGCUCGCAGUCAAG”, for which the binding signal (log2 fold change) was 0.0893.
For the sequence “GGUCACGUCUCAAUCAACUCUUCGUCAGGAGUUUACUCCUGCAUAUUCAACAGCUCGCAGUCAAG”, the binding signal (log2 fold change) was -0.0285.
Consider “GGUCACGUCUCAAUCAACUCAGUCCCAGGAGUUUACUCCUGCUAAUUCAACAGCUCGCAGUCAAG”, for which the binding signal (log2 fold change) worked out at 0.118.
As for “GGUCACGUCUCAAUCAACUCUUCGCCAGGAGUUUUCUCCUGUAUAUUCAACAGCUCGCAGUCAAG”, the figure is -0.0303; as for “GGUCACGUCUCAAUCAACUCUUCGUCCAGGGAAAUCCCUGGUUAUCUCAACAGCUCGCAGUCAAG”, 0.111; as for “GGUCACGUCUCAAUCAACUCAAUAGAGGGGGGGAAAACCCCUUUGCCCUCAGAAUCAACAGCUCGCAGUCAAG”, -0.00936.
As for “GGUCACGUCUCAAUCAACUCUUCGUCCAGGGAAAACCCUGGUUAAUUCAACAGCUCGCAGUCAAG”, the binding signal (log2 fold change) was -0.0227.
As for “GGUCACGUCUCAAUCAACUCUUUCCCCAGGGAAAGCCCUGGCAAUGUCAACAGCUCGCAGUCAAG”, the binding signal (log2 fold change) is -0.0371.
Consider “GGUCACGUCUCAAUCAACUCAUCCCCAGGAGUUUCCUCCUGCAAACUCAACAGCUCGCAGUCAAG”, for which the binding signal (log2 fold change) was found to be 0.0262.
On to “GGUCACGUCUCAAUCAACUCCUACGAGGGGGGGAAAACCCCUUUACCCUCUAUAUCAACAGCUCGCAGUCAAG”, for which the binding signal (log2 fold change) was 0.0141.
As for “GGUCACGUCUCAAUCAACUCAUCCUCAGGAGUUUACUCCUGUAAUCUCAACAGCUCGCAGUCAAG”, the binding signal (log2 fold change) is 0.0944.
The figure for “GGUCACGUCUCAAUCAACUCUCCCGAGGGGGGGAAAACCCCUUUACCCUCACAAUCAACAGCUCGCAGUCAAG” is -0.565; for “GGUCACGUCUCAAUCAACUCAACUCCAGGAGUUUACUCCUGCUAUCUCAACAGCUCGCAGUCAAG” it is 0.0483.
The figure for “GGUCACGUCUCAAUCAACUCUAAAGAGGGGGGGAAAACCCCUUUACCCUCAACUUCAACAGCUCGCAGUCAAG” is -0.148.
On to “GGUCACGUCUCAAUCAACUCAGUUCCAGGAGUUUCCUCCUGCAUUUUCAACAGCUCGCAGUCAAG”, for which the binding signal (log2 fold change) was -0.12.
Turning to “GGUCACGUCUCAAUCAACUCAGUCUCCAGGGAAAGCCCUGGUAUAUUCAACAGCUCGCAGUCAAG”, the binding signal (log2 fold change) turned out to be 0.113.
Consider “GGUCACGUCUCAAUCAACUCUAUUCCAGGAGUUUCCUCCUGUAAACUCAACAGCUCGCAGUCAAG”, for which the binding signal (log2 fold change) is 0.0269.
Consider “GGUCACGUCUCAAUCAACUCUUCCCCCAGGGAAAGCCCUGGCAUUUUCAACAGCUCGCAGUCAAG”, for which the binding signal (log2 fold change) was -0.152.
As to “GGUCACGUCUCAAUCAACUCCUAAGAGGGGGGGAAAACCCCUUUGCCCUCAUCCUCAACAGCUCGCAGUCAAG”, the binding signal (log2 fold change) came out at 0.133.
In the case of “GGUCACGUCUCAAUCAACUCCCUAGAGGGGGGGAAAACCCCUUUGCCCUCCAACUCAACAGCUCGCAGUCAAG”, the binding signal (log2 fold change) is 0.245.
Turning to “GGUCACGUCUCAAUCAACUCUACUUCCAGGGAAACCCCUGGCAUUCUCAACAGCUCGCAGUCAAG”, the binding signal (log2 fold change) is 0.0161.
Take “GGUCACGUCUCAAUCAACUCUAUUCCAGGAGUUUUCUCCUGCAAACUCAACAGCUCGCAGUCAAG”: the binding signal (log2 fold change) was found to be 0.0585.
As for “GGUCACGUCUCAAUCAACUCUUCCUCCAGGGAAACCCCUGGUAAAUUCAACAGCUCGCAGUCAAG”, the binding signal (log2 fold change) is -0.188.
As for “GGUCACGUCUCAAUCAACUCUCCAGAGGGGGGGAAAACCCCUUUGCCCUCAUUAUCAACAGCUCGCAGUCAAG”, the binding signal (log2 fold change) is -0.0589.
As to “GGUCACGUCUCAAUCAACUCUUCCUCAGGAGUUUCCUCCUGUAAUUUCAACAGCUCGCAGUCAAG”, the binding signal (log2 fold change) was 0.0967.
The figure for “GGUCACGUCUCAAUCAACUCUAUAGAGGGGGGGAAAACCCCUUUGCCCUCAUCCUCAACAGCUCGCAGUCAAG” is -0.067; for “GGUCACGUCUCAAUCAACUCAUCUUCAGGAGUUUACUCCUGCAAUUUCAACAGCUCGCAGUCAAG” it is -0.00995; for “GGUCACGUCUCAAUCAACUCUUUCCCCAGGGAAAACCCUGGCAUAUUCAACAGCUCGCAGUCAAG” it is 0.115.
As for “GGUCACGUCUCAAUCAACUCCAUAGAGGGGGGGAAAACCCCUUUACCCUCACUAUCAACAGCUCGCAGUCAAG”, the figure is -0.000467.
As for “GGUCACGUCUCAAUCAACUCUACUCCAGGAGUUUUCUCCUGCAAUGUCAACAGCUCGCAGUCAAG”, the figure is 0.12; as for “GGUCACGUCUCAAUCAACUCAUACGAGGGGGGGAAAACCCCUUUACCCUCAAAAUCAACAGCUCGCAGUCAAG”, -0.456.
With “GGUCACGUCUCAAUCAACUCUUCUUCAGGAGUUUACUCCUGUUAACUCAACAGCUCGCAGUCAAG”, the binding signal (log2 fold change) worked out at 0.0697.
Turning to “GGUCACGUCUCAAUCAACUCAUCCUCCAGGGAAAGCCCUGGCAAUUUCAACAGCUCGCAGUCAAG”, the binding signal (log2 fold change) was 0.0238.
Consider “GGUCACGUCUCAAUCAACUCUUCUCCCAGGGAAAGCCCUGGUUUUUUCAACAGCUCGCAGUCAAG”, for which the binding signal (log2 fold change) was -0.0101.
As to “GGUCACGUCUCAAUCAACUCAUUUCCCAGGGAAAGCCCUGGUAAUUUCAACAGCUCGCAGUCAAG”, the binding signal (log2 fold change) came out at 0.14.
Take “GGUCACGUCUCAAUCAACUCAUCGUCAGGAGUUUGCUCCUGUAAUCUCAACAGCUCGCAGUCAAG”: the binding signal (log2 fold change) amounted to 0.196.
Take “GGUCACGUCUCAAUCAACUCAUUCUCCAGGGAAACCCCUGGCAUACUCAACAGCUCGCAGUCAAG”: the binding signal (log2 fold change) came out at 0.0228.
Turning to “GGUCACGUCUCAAUCAACUCAGUUUCAGGAGUUUCCUCCUGCAUUUUCAACAGCUCGCAGUCAAG”, the binding signal (log2 fold change) was -0.0527.
With “GGUCACGUCUCAAUCAACUCCACAGAGGGGGGGAAAACCCCUUUGCCCUCCAUUUCAACAGCUCGCAGUCAAG”, the binding signal (log2 fold change) is -0.287.
“GGUCACGUCUCAAUCAACUCAAUCGAGGGGGGGAAAACCCCUUUACCCUCCAAAUCAACAGCUCGCAGUCAAG”: the binding signal (log2 fold change) was 0.111.
As for “GGUCACGUCUCAAUCAACUCUUUCUCAGGAGUUUACUCCUGUUUUUUCAACAGCUCGCAGUCAAG”, the figure is -0.18.
With “GGUCACGUCUCAAUCAACUCUUUUUCCAGGGAAACCCCUGGCGUUUUCAACAGCUCGCAGUCAAG”, the binding signal (log2 fold change) was -0.255.
As for “GGUCACGUCUCAAUCAACUCUUCUCCCAGGGAAAACCCUGGCUAUUUCAACAGCUCGCAGUCAAG”, the figure is 0.248; as for “GGUCACGUCUCAAUCAACUCAAUUCCCAGGGAAAGCCCUGGUUAACUCAACAGCUCGCAGUCAAG”, -0.106.
Take “GGUCACGUCUCAAUCAACUCAUCGGCCAGGGAAAUCCCUGGGAAUCUCAACAGCUCGCAGUCAAG”: the binding signal (log2 fold change) is 0.0249.
For the sequence “GGUCACGUCUCAAUCAACUCUUCGUCAGGAGUUUUCUCCUGCUUAUUCAACAGCUCGCAGUCAAG”, the binding signal (log2 fold change) is -0.0252.
Regarding “GGUCACGUCUCAAUCAACUCAUCCCCAGGAGUUUCCUCCUGUAAAUUCAACAGCUCGCAGUCAAG”, the binding signal (log2 fold change) was determined as 0.282.
Consider “GGUCACGUCUCAAUCAACUCUAUCUCAGGAGUUUACUCCUGUUAUUUCAACAGCUCGCAGUCAAG”, for which the binding signal (log2 fold change) is -0.0792.
With “GGUCACGUCUCAAUCAACUCAUCUCCCAGGGAAAGCCCUGGCUUUCUCAACAGCUCGCAGUCAAG”, the binding signal (log2 fold change) is 0.142.
Turning to “GGUCACGUCUCAAUCAACUCAAUCCCAGGAGUUUUCUCCUGUUAUGUCAACAGCUCGCAGUCAAG”, the binding signal (log2 fold change) was determined as 0.131.
As for “GGUCACGUCUCAAUCAACUCUUCCUCAGGAGUUUACUCCUGUUAUGUCAACAGCUCGCAGUCAAG”, the binding signal (log2 fold change) turned out to be 0.124.
For the sequence “GGUCACGUCUCAAUCAACUCAUCUUCAGGAGUUUCCUCCUGUAAAUUCAACAGCUCGCAGUCAAG”, the binding signal (log2 fold change) came to 0.0327.
For the sequence “GGUCACGUCUCAAUCAACUCUUCUUCCAGGGAAAACCCUGGCAUACUCAACAGCUCGCAGUCAAG”, the binding signal (log2 fold change) was 0.194.
“GGUCACGUCUCAAUCAACUCUUUUGCAGGAGUUUACUCCUGGUAUUUCAACAGCUCGCAGUCAAG”: the binding signal (log2 fold change) stood at 0.177.
As for “GGUCACGUCUCAAUCAACUCAUCGUCAGGAGUUUACUCCUGUUUAUUCAACAGCUCGCAGUCAAG”, the figure is 0.0497.
Regarding “GGUCACGUCUCAAUCAACUCUUCUCCAGGAGUUUACUCCUGUUAUUUCAACAGCUCGCAGUCAAG”, the binding signal (log2 fold change) was determined as 0.116.
Turning to “GGUCACGUCUCAAUCAACUCCAACGAGGGGGGGAAAACCCCUUUGCCCUCAAAUUCAACAGCUCGCAGUCAAG”, the binding signal (log2 fold change) is -0.264.
